{"source": "PubChem BioAssay AID1347043", "about": "(National Center for Advancing Translational Sciences (NCATS), 2019)", "note": "In all, about 76,000 compounds went through this assay and about 1,900 (2.5%) were called active. This list was built around the results that the source calls inconclusive (neither active nor inactive); the mix of calls is not that of the screen. Calls come from the whole dose curve; as a rule, active = well fitted inhibition curve with a large enough effect; inconclusive = small, poorly fitted or top-dose-only effect; inactive = flat fitted curve, though single readings scatter. Potencies of inconclusive entries are doubtful fits and often do not repeat. Potency is the fitted concentration of half-maximal effect; tags give direction and shape of the fitted curve."}
{"molecular_target": "Luciferin 4-monooxygenase (Photinus pyralis) (UniProt P08659)", "sequence (P08659 whole entry, looked up)": "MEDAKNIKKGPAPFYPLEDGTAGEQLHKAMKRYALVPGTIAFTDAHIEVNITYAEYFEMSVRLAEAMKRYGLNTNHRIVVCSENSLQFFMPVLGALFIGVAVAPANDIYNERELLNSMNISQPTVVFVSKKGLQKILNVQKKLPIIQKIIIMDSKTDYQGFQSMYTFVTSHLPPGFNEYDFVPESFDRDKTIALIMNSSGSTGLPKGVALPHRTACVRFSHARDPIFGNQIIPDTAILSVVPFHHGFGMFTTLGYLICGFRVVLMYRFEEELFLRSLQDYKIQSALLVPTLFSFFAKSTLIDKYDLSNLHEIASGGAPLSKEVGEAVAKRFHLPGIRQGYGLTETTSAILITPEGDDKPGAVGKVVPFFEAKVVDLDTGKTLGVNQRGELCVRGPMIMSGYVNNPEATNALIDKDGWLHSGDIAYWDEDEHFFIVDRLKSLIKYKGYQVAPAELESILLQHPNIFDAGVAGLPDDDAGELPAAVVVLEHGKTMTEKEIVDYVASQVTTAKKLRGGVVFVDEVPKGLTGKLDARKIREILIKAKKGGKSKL", "test": "Firefly luciferase inhibition profiling of diverse chemical library using quantitative high-throughput screening; note: nearly all actives have a fitted effect of over 65% in size", "conditions": "purified P. pyralis luciferase, luminescence, biochemical; series mostly up to 115 µM", "in_short": "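Luminescence read by CCD imager after adding enzyme (10nM final) to wells holding compound, titrated in qHTS. Substrates 10uM each D-luciferin and ATP; buffer 50mM Tris acetate pH 7.5, 10mM Mg acetate, Tween-20, BSA.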"}
{"smiles": "Cc1ccc(S(=O)(=O)Nc2nc3c(s2)C[C@]2(C)CC[C@@H]4[C@H](OC(=O)[C@H]4C)[C@H]2[C@@H]3C)cc1", "Potency": "inconclusive: 89.1 µM [inhibitor, partial curve, poor fit]"}
{"smiles": "O=C(c1cc2cc(F)ccc2[nH]1)N1CCCC(CO)(Cc2cccc(Cl)c2)C1", "note": "(stereo not given)", "Potency": "inconclusive: 39.8 µM [inhibitor, partial curve]"}
{"smiles": "F[C@@H]1CN(CC2CC2)C[C@@H]1OCc1nc2ccccc2o1", "Potency": "active: 35.5 µM"}
{"smiles": "N#Cc1cccc(CN2CCc3nc(C(=O)Nc4cccc(C(F)(F)F)c4)oc3CC2)c1", "Potency": "inconclusive: 22.4 µM [inhibitor, full curve, poor fit]"}
{"smiles": "COc1ccc(CC(=O)N2CCC(Oc3nccnc3N(C)C)C2)cc1", "note": "(stereo not given)", "Potency": "inconclusive: 44.7 µM [inhibitor, partial curve]"}
{"smiles": "Cn1cccc1CN1C[C@@H](CO)[C@H](NC(=O)c2ccccc2)C1", "Potency": "inactive"}
{"smiles": "O=C(Nc1ccc(Cl)nc1)c1cccn2nccc12", "Potency": "inconclusive: 112 µM [inhibitor, partial curve, poor fit]"}
{"smiles": "O=C(CCc1ccc(-c2ccc(Cl)cc2)[nH]1)N1CC[C@H](CO)[C@H](O)C1", "Potency": "inconclusive: 39.8 µM [inhibitor, partial curve]"}
{"smiles": "COc1ccccc1NC(=O)Nc1cccc(-c2ccc(N3CCCCC3)nn2)c1", "Potency": "active: 0.708 µM"}
{"smiles": "O=C(c1ccc(Cl)s1)N1CCC(n2cc(-c3nc(-c4ccccc4)no3)nn2)CC1", "Potency": "inconclusive: 100 µM [inhibitor, single point]"}
{"smiles": "Cn1ccc2cc(-c3ccc4c(n3)c(=O)ncn4CC3CC3)ccc21", "Potency": "active: 44.7 µM"}
{"smiles": "COCCN1CCCCCC(O)c2cc(C(=O)Nc3ccc(C)cc3)ccc21", "note": "(stereo not given)", "Potency": "inconclusive: 44.7 µM [inhibitor, partial curve]"}
{"smiles": "COc1cccc(NC(=O)Cn2c(=O)n(-c3ccccc3)c(=O)c3c2cc(C)n3C)c1", "Potency": "inactive"}
{"smiles": "COc1ccc(-n2nc(C)c([C@@H]3C=C[C@@H](NC(=S)NCC(C)C)C3)c2C)cc1", "Potency": "active: 15.8 µM"}
{"smiles": "CNC(=O)CCn1ncc2cc(OCc3ccccc3-c3cc(F)ccc3OC)ccc21", "Potency": "active: 39.8 µM"}
{"smiles": "O=C(Nc1ccc([C@H]2OCC(=O)N(C3CCOCC3)[C@@H]2CO)cc1)c1ccc(C(F)(F)F)cc1", "Potency": "active: 10 µM"}
{"smiles": "O=C(Nc1ccccc1)c1nc2c(o1)CCN(Cc1cccc(Cl)c1)CC2", "Potency": "active: 1.58 µM"}
{"smiles": "COC(=O)CNC(=O)c1nc(-c2c(C)cccc2C)c2ccccn12", "Potency": "inconclusive: 50.1 µM [inhibitor, partial curve]"}
{"smiles": "Cc1cnc(C(=O)N[C@@H]2CCC[C@@H]2C(=O)Nc2ccc(C)c(F)c2)cn1", "Potency": "inactive"}
{"smiles": "Cc1ccc(CN2CCC(N3CCCNC3=O)CC2)cc1", "Potency": "inactive"}
{"smiles": "COCCN1CCCC2(CCN(c3nc(C)nc4sccc34)C2)C1=O", "note": "(stereo not given)", "Potency": "inactive"}
{"smiles": "COc1ccc(C(=O)N2CCCC(c3nc(-c4ccccc4)no3)CCNC(=O)CC2)c(OC)c1", "note": "(stereo not given)", "Potency": "inconclusive: 56.2 µM [inhibitor, partial curve, poor fit]"}
{"smiles": "COC1CCC12CCN(C(=O)c1ccsc1)CC2", "note": "(stereo not given)", "Potency": "inactive"}
{"smiles": "Cc1ccc(-c2noc([C@@H]3CCCN3C(=O)c3ccc(C)nc3)n2)cc1", "Potency": "inconclusive: 50.1 µM [inhibitor, partial curve, poor fit]"}
{"smiles": "O=C(NCc1ccccc1Cl)C1CCN(C(=O)c2ncn3c2COC(c2ccccc2)C3)CC1", "note": "(stereo not given)", "Potency": "active: 14.1 µM"}
{"smiles": "O=C(CCc1cc2n(n1)CCCNC2)Nc1ccc2c(c1)OCCO2", "Potency": "inconclusive: 70.8 µM [inhibitor, partial curve]"}
{"smiles": "CC(C)c1ccc(N2CC(C(=O)N(C)Cc3cc(C(C)C)on3)CC2=O)cc1", "note": "(stereo not given)", "Potency": "inconclusive: 79.4 µM [inhibitor, partial curve, poor fit]"}
{"smiles": "Cc1ccc(C(=O)NC2CCN(C(=O)N3CC4CC(C3)[C@H]3CCCC(=O)N3C4)CC2)cn1", "note": "(stereo not given in full)", "Potency": "inactive"}
{"smiles": "Fc1ccc2nc(CO[C@H]3CN(C4CCC4)C[C@H]3F)[nH]c2c1", "Potency": "inconclusive: 89.1 µM [inhibitor, partial curve]"}
{"smiles": "COc1ccc2cc(C3CN(C(=O)CNC(=O)C(C)C)CCO3)ccc2c1", "note": "(stereo not given)", "Potency": "active: 8.91 µM"}
{"smiles": "O=C(NC1CCCN(c2cc(-c3ccc(Cl)cc3)[nH]n2)C1)c1ccncc1", "note": "(stereo not given)", "Potency": "active: 12.6 µM"}
{"smiles": "Cc1ccc(-c2cc(N3CCCN(C(=O)c4sccc4C)CC3)n[nH]2)cc1C", "Potency": "inconclusive: 50.1 µM [inhibitor, partial curve, poor fit]"}
{"smiles": "CN1CCC(N2CC[C@H](c3nnc(-c4ccccc4F)o3)C2)CC1", "Potency": "inconclusive: 89.1 µM [inhibitor, partial curve]"}
{"smiles": "O=S(=O)(N[C@H]1CO[C@H]2[C@@H]1OC[C@H]2O)c1ccc(Cl)cc1", "Potency": "inactive"}
{"smiles": "COCCOc1ccc(-c2ccnc(OC)c2C#N)cc1", "Potency": "inconclusive: 39.8 µM [inhibitor, partial curve]"}
{"smiles": "O=c1n(-c2ccc(F)cc2F)nc2n1CCN([S+](=O)([O-])c1ccccc1)C2", "Potency": "inactive"}
{"smiles": "CCNC(=O)N1CCCC(Cc2noc(-c3ccccn3)n2)C1", "note": "(stereo not given)", "Potency": "inconclusive: 56.2 µM [inhibitor, partial curve]"}
{"smiles": "O=C1[C@@H]2C[C@@H](CN2CC2CC2)Oc2ccccc2N1Cc1ccc(OC(F)(F)F)cc1", "Potency": "inactive"}
{"smiles": "O=C(NCCCc1ccccn1)c1ccc(C2CCCNC2)cc1", "note": "(stereo not given)", "Potency": "inconclusive: 44.7 µM [inhibitor, partial curve, poor fit]"}
{"smiles": "CC(C)CN(Cc1cccnc1)C1CN(C(=O)NCc2ccc(F)cc2)C1", "Potency": "inactive"}
{"smiles": "COc1ccc(S(=O)(=O)NC[C@@H]2C=C(C)[C@H](CC(=O)N3CCN(C)CC3)C[C@H]2C(C)C)cc1", "Potency": "inactive"}
{"smiles": "COc1cccc(CNC(=O)C2CCN(C(=O)c3ncn4c3COC(c3ccc(F)cc3)C4)CC2)c1", "note": "(stereo not given)", "Potency": "inconclusive: 39.8 µM [inhibitor, partial curve]"}
{"smiles": "Cc1ccc(CNC(=O)c2ccc3c(c2)CN(Cc2cncs2)CCO3)cc1", "Potency": "inactive"}
{"smiles": "CCCc1cc(N2CCC(N[C@@H]3CCNC3)CC2)nc(C)n1", "Potency": "inactive"}
{"smiles": "CCN1CCN(C(=O)c2ccc(-c3nnc4ccc(NC(=O)C5CCC5)cn34)cc2)CC1", "Potency": "inconclusive: 44.7 µM [inhibitor, partial curve, poor fit]"}
